Experimental findings from PubChem BioAssay AID686971 (National Center for Advancing Translational Sciences (NCATS), 2013) are described below.

About 7,500 (2.1%) of roughly 360,000 compounds were called active. Inconclusive results (about 8%) are left out. The call rests on the fitted dose curve; in most records, active means well fitted cell-killing curve with a large enough effect; inconclusive means small, poorly fitted or top-dose-only effect, or effect the other way, or another doubt; inactive means no such curve, though single readings can be large or run the other way. The entries are a selection whose mix differs from that of the whole data set.
Potency means the concentration at half of the fitted maximal effect.

The assay in a line: qHTS for induction of synthetic lethality in tumor cells producing 2HG: qHTS for the HT-1080-IDH1KD cell line. The settings on record: HT-1080 IDH1 knockdown viability, ATP luminescence, 48 h; series mostly up to 46.1 µM; activity, negative = toxicity: at the top concentration. The text has this: Unbiased genomic sequencing for 22 glioma genomes found recurrent mutation of IDH1 on chromosome 2q33, a gene encoding the cytosolic isoform of IIDH1 associated with the tri-carboxylic acid cycle (TCA) that catalyzes the oxidative decarboxylation of isocitrate, yielding alpha-ketoglutarate and CO2 via NADP+ to NADPH conversion. Subsequent studies confirmed the recurrent IDH mutations in up to 70% of secondary gliomas and in 10% of AML cases. In addition, the somatic mutation of cancer-associated IDH1 is a point mutation resulting in various amino-acid substituents at Arginine132 (IDH1 R132), a key residue found in the enzyme's active site that when mutated, results in the loss-of-function in metabolizing isocitrate but confers a gain-of-function to produce the oncometabolite 2-hydroxyglutarate (2HG). This in effect defines IDH1 as an oncogene and provides an extraordinary opportunity to discover chemical probes against mutant IDH1 that may translate into much needed new therapies for glioma and AML patients.
This assay aims to perform a synthetic-lethal screen for chemical probes specific for 2HG-producing tumor cells using matched paired cell lines (1) HT-1080-NT fibrosarcoma cell line that overproduces 2HG and (2) HT-1080-IDH1KD cell line which has IDH1 expression knocked-down. Desirable compounds are toxic to the NT fibrosarcoma cell line but not to the IDH1KD cell line. The data in this AID corresponds to the results of the qHTS against the HT-1080 IDH1KD cell line.
[1] Dang L, Jin S, Su SM. IDH mutations in glioma and acute myeloid leukemia. Trends of Mol Med. 2010; 16(9): 387-97.
[2] Dang L et al. Cancer-associated IDH1 mutations produce 2-hydroxyglutarate. Nature. 2010; 465(7300):966.
Molecular Libraries Probe Production Centers Network [MLPCN]
NIH Chemical Genomics Center [NCGC]
Assay Submitter (PI): Lenny Dang Ph.D., Agios Pharmaceuticals
Suspensions of trypsinized HT-1080-IDH1KD cells were dispensed into white, tissue culture-treated, solid 1536-well plates at 5uL/well (750 cells/well final concentration) in RPMI medium supplemented with 5% FBS. Plates were incubated at 37 degrees C for 2 hours, after which 23 nL of compounds or DMSO were delivered to each well using a pin tool. Plates were then incubated at 37 degrees C for an additional 48 hours. CellTiter-Glo viability reagent (Promega) was dispensed into wells (2.5uL/well) and incubated at room temperature for 10 minutes. The plates were measured on a PerkinElmer ViewLux plate reader for luminescent signal (clear filter, 1 sec exp.). DMSO-treated control wells and media-only (no cells) control wells were used to normalize %Activity of identified toxic compounds; DMSO-treated wells corresponded to 0%Activity (100% viability), while media-only controls were used to normalize 100%Activity (0% viability). To minimize variability between cell lines, both HT-1080-NT and HT-1080-IDH1KD lines were dispensed and treated with identical compound series in single batches.
Concentration-response curves were fitted to the signals arising from the resulting luminescence. The concentration-effect curves were then classified based on curve quality (r2), response magnitude and degree of measured activity, and compounds were subsequently categorized based on their curve class.
For `CN(C)CCC[C@]1(c2ccc(F)cc2)OCc2cc(C#N)ccc21`, the “activity, negative = toxicity” value is inactive: -19.4%.
On the same count and under the same terms, with `O=C1NC[C@H](Cc2ccc(O)cc2)N(C[C@@H]2CCCN2C[C@H](Cc2ccccc2)N2C[C@H](Cc3ccccc3)N(CCc3ccccc3)C(=O)C2=O)C1=O` the figure was inactive: 12.5%; with `CC(C)[C@H]1C(=O)Nc2ccccc2N1C(=O)N[C@@H](Cc1ccccc1)C(=O)N[C@H](Cc1ccccc1)C(=O)O`, inactive: 10.5%.
`CNc1nc2cc([N+](=O)[O-])c([N+](=O)[O-])cc2nc1NC`: the Potency was active: 3.26 µM.
For the compound `CCOC(=O)/C(=N/Nc1ccc(Br)cc1)N1CC(C)OC(C)C1` (centres undefined), the “activity, negative = toxicity” value was inactive: -29.9%.
Same read-out and setting: with `O=C(CCCN1C(=O)/C(=C/c2ccccc2)SC1=S)Nc1ccc(O)cc1` the figure was inactive: -0.0866%; with `Cc1ccc(C(=O)C[n+]2cc(-c3ccccc3)n3c2CCCCC3)cc1`, inactive: -29%.
Turning to `COc1cc2cc(C(=O)NC(C)c3cccc4ccccc34)c(N)nc2cc1OC` (centres undefined), the Potency is active: 18.4 µM.
Still for that read-out and setting: with `Cc1ccc(C)c(N2CCN(C(=O)c3cccn4c(=O)c5sccc5nc34)CC2)c1` the figure was active: 16.4 µM.
Turning to `O=C(Nc1ccn([C@H]2CC[C@@H](CO)O2)c(=O)n1)c1ccccc1`, the “activity, negative = toxicity” value is inactive: 2.96%.
Still for that read-out and setting: the value for `Cc1ccc(S(=O)(=O)N2[C@@H](c3cccc(Cl)c3)C(C(=O)O)=CC[C@H]2c2ccc(Cl)c(Cl)c2)cc1` was inactive: -25.3%; that for `COc1ccc(/C=C2/SC(=O)N(CCC(=O)Nc3ccccc3)C2=O)cc1OC` was inactive: -2.79%.
Same read-out and setting: with `Cc1cccc(Nc2nnc(SC/C(O)=C(\C#N)c3nc4ccccc4[nH]3)s2)c1` the figure was inactive: 1.88%.
As to `CC(C)c1ccc(O)c(NC(=S)NC(=O)c2ccc3c(c2)OCO3)c1`, the Potency is active: 14.6 µM.
The same measure, in the same setting: the value for `CN(C)CCCNc1nc2cc(-c3cccc(Cl)c3)sc2c(=O)n1C` was active: 16.4 µM.
The same measure, in the same setting: with `CC1(Oc2ccc3ccccc3c2)CCN(Cc2cccn2-c2nccs2)C1` (centres undefined) the figure was active: 14.6 µM; with `CCS(=O)(=O)Nc1ccc(C2=NN(C(C)=O)C(c3cccs3)C2)cc1` (centres undefined), active: 16.4 µM.
For the compound `NS(=O)(=O)c1ccc(Nc2nc(-c3ccc(F)cc3)cs2)cc1`, the Potency is active: 14.6 µM.
As to `CN1CCN(CCC=C2c3ccccc3Sc3ccc(S(=O)(=O)N(C)C)cc32)CC1`, the “activity, negative = toxicity” value was inactive: 6.1%.
Turning to `COc1cc2nc(CN(C)Cc3nc4ccccc4c(=O)[nH]3)[nH]c(=O)c2cc1OC`, the Potency was active: 7.08 µM.
The same measure, in the same setting: the value for `CCCCOc1ccc(C(=O)C(CN2CCOCC2)c2ccccc2)cc1` (centres undefined) was active: 16.4 µM.
Regarding `Cc1cn([C@H]2C=C[C@@H](CO)O2)c(=O)[nH]c1=O`, the “activity, negative = toxicity” value was inactive: 0.549%.
Same read-out and setting: the value for `COc1cc([C@@H]2Oc3cc(C4Oc5cc(O)cc(O)c5C(=O)[C@H]4O)ccc3O[C@H]2CO)ccc1O` (some centres undefined) was inactive: -10.3%.
`Cc1ccc(S(=O)(=O)CCc2nnc(NC(=O)CCl)s2)cc1C`: the Potency was active: 14.6 µM.
Same read-out and setting: the value for `CC(C(=O)Nc1ccccc1)c1ccc(-c2ccccc2)c(F)c1` (centres undefined) was active: 20.6 µM.
As to `O=C(/C=C/c1ccco1)NC(=S)Nc1ccccc1O`, the “activity, negative = toxicity” value was inactive: -30%.
Same read-out and setting: with `Cc1ccc(/C=C2\SC(=S)N(CCC(=O)NCCCN3CCOCC3)C2=O)cc1` the figure was inactive: -12.9%; with `Cc1ccc([C@H]2C[C@@H](O)[C@H](n3cc(COC(=O)c4ccccc4)nn3)CN2Cc2cccs2)cc1`, inactive: -3.46%; with `Brc1ccc2[nH]c3nc(SCCN4CCOCC4)nnc3c2c1`, inactive: 0%.
On the same count and under the same terms, with `COc1ccc(NC(=O)CCN2C(=O)C3C4C=CC(C4)C3C2=O)cc1` (centres undefined) the figure was inactive: -11.5%.
Still for that read-out and setting: with `Cc1noc(NS(=O)(=O)c2ccc(N/C=C/C(=O)c3ccc4c(c3)OCO4)cc2)c1C` the figure was inactive: -23.4%.
Turning to `Cc1[nH]c2ccccc2c1/C=C/c1nc2ccccc2c(=O)[nH]1`, the Potency was active: 16.4 µM.
As for `C=CC[C@@H](CC(=O)N[C@H](CO)Cc1ccccc1)C(=O)N[C@@H](COC(=O)[C@@H](CC=C)CC(=O)OC(C)(C)C)Cc1c[nH]c2ccccc12`, the “activity, negative = toxicity” value is inactive: -8.79%.
`Cc1ccc2nc(C(C)(C)C)c(Cc3cccc(F)c3)n2c1`: the Potency was active: 23.1 µM.
As to `CCOC(=O)N1CC=C2C(C#N)=C(N)C(C#N)(C#N)[C@H](c3cccs3)[C@H]2C1`, the “activity, negative = toxicity” value was inactive: -20.9%.
The same measure, in the same setting: the value for `Cc1cccc(COCC(CC(C)C)N2CCN(C(=O)c3ccc(C(F)(F)F)cc3)CCC2=O)c1` (centres undefined) was inactive: -4.74%; that for `COc1cc(Nc2ccccn2)cc(C(=O)Nc2cccc(C(F)(F)F)c2)c1` was inactive: -1.01%; that for `COC(=O)/C(=C1\Oc2ccc(C(C)(C)C)cc2S1)C(F)(F)F` was inactive: 11%.
As for `COCCCNC(=O)C(=O)Nc1ccc2c(c1)N(S(=O)(=O)c1cccs1)CCC2`, the Potency is active: 2.31 µM.
Take `CC(=O)OCC(=O)C1(O)CCC2C3CCC4=CC(=O)C=CC4(C)C3C(O)CC21C` (centres undefined): the “activity, negative = toxicity” value is inactive: 26.2%.
With `COc1cc2c(c(OC)c1OC)-c1ccc(OC)c(=O)cc1C(NC(=O)c1ccccc1)CC2` (centres undefined), the Potency is active: 0.0206 µM.
On to `O=C1N[C@H](Cc2c[nH]c3ccccc23)COC(=O)[C@H](Cc2ccc(F)cc2)C/C=C\C[C@H]1CC(=O)N(CCO)Cc1ccccc1`, for which the “activity, negative = toxicity” value was inactive: -29.2%.
As for `C#CCN1C=C(C(=O)OCC)C(C)N(Cc2ccccc2I)S1(=O)=O` (centres undefined), the Potency was active: 20.6 µM.
As to `CCN(CC)CCN1C(=O)Cn2c(C)c(C)c3cccc1c32`, the “activity, negative = toxicity” value is inactive: 1.28%.
On the same count and under the same terms, the value for `COc1ccc2c3c([nH]c2c1)C1CC2C(CC(O)C(OC)C2C(=O)O)CN1CC3` (centres undefined) was inactive: -4.05%; that for `Cc1cn(C2C=CC(CO)O2)c(=O)[nH]c1=O` (centres undefined) was inactive: 21.3%; that for `CC(=O)n1cc([C@H]2C=C(C(=O)Nc3ccccc3)O[C@@H](OCCCCO)C2)c2ccccc21` was inactive: -1.57%.
`COc1ccc(-c2csc(N3C(=O)C4C5c6ccccc6C(c6ccccc65)[C@@H]4C3=O)n2)cc1` (some centres undefined): the “activity, negative = toxicity” value is inactive: 2.71%.
For the compound `CC(=O)Nc1cc(-c2ccc(C(=O)NC3CC3)cc2)cn2c(-c3ccc(F)c(Cl)c3)cnc12`, the Potency was active: 18.4 µM.
In the case of `CCCc1ccc(OCC(O)CN2CCN(c3ccccc3)CC2)cc1` (centres undefined), the “activity, negative = toxicity” value is inactive: -24.8%.
As to `Cc1ccsc1/C=N/NC(=O)c1cc(-c2ccncc2)nc2ccccc12`, the Potency is active: 0.92 µM.
For `CCO[C@@H]1OC(C(=O)NC2CC2)=C[C@H](c2ccccc2)[C@H]1CCCO`, the “activity, negative = toxicity” value was inactive: -5.53%.
Same read-out and setting: with `C=CC[C@@H](CC(=O)N[C@H](CO)Cc1ccccc1)C(=O)NC[C@H](OC(=O)[C@@H](CC=C)Cc1ccc(F)cc1)c1ccccc1` the figure was inactive: -9.09%; with `O=C(Nc1nnc([C@@H]2C[C@H](O)[C@@H](CO)O2)s1)c1cccc(Cl)c1`, inactive: 17.5%.
Same read-out and setting: with `CC1(C)O[C@@H]2CC3C4C[C@H](F)C5=CC(=O)C=CC5(C)C4C(O)CC3(C)[C@]2(C(=O)CO)O1` (some centres undefined) the figure was inactive: 18.9%; with `Cc1ccc2c(c1)c1c3n2CCNC3CCC1` (centres undefined), inactive: -7.74%; with `O=[N+]([O-])C(/C=C(\Cl)[N+](=O)[O-])=C(N1CCCCC1)N1CCCCC1`, inactive: -4.86%.
Still for that read-out and setting: the value for `CCO[C@@H]1OC(C(=O)Nc2ccccc2)=C[C@H](c2csc3ccccc23)[C@H]1CCCO` was inactive: -4.9%; that for `O=C1N[C@@H](c2ccccc2)COC(=O)[C@@H](Cc2ccc(F)cc2)C/C=C\C[C@@H]1CC(=O)N(CCO)Cc1ccccc1` was inactive: -2.59%.
